Results on 56 compounds are retold here after ChEMBL document CHEMBL1201862, “PubChem BioAssay data set” (2004).

The structures appear in SMILES notation.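 Values below derive from 48-hour exposures of cells grown in 96-well plates, with endpoints linearly interpolated between the two concentrations bracketing the appropriate inhibition level. GI50 is the concentration that inhibits growth by half.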 Calls of active or inactive are those of the source. Cut-off read from the data, not from the text of the source: active = GI50 up to about 1.1 µM and inactive = higher. Some results are limits rather than exact numbers.

For the experiment, the system named is NCI-H322M. Kind of experiment: inhibition of tumour cell growth, NCI panel, 48 h.
With `O=C1[C@@H]2[C@@H](CN3CN(c4ccccc4)N=C(c4ccccc4)[C@@]23c2ccccc2)C(=O)N1c1ccccc1`, the GI50 was inactive: 17.1 µM.

Turning to `O=C(C1OC1c1ccc(Cl)cc1)C12CC3CC(CC(C3)C1)C2` (stereo unspecified), the GI50 is inactive: 22.5 µM.

Take `O=c1nc(NC(c2ccccc2)(c2ccccc2)c2ccccc2)ccn1CCCl`: the GI50 is inactive: 25.4 µM.

Turning to `COc1ccc(/C=C2\CCS(=O)(=O)c3ccccc3C2=O)cc1`, the GI50 is inactive: 25.9 µM.

`CC(C)(C)c1ccc(C(O)(c2ccc(C(C)(C)C)cc2)c2ccc(C(C)(C)C)cc2)cc1`: the GI50 was inactive: > 100 µM.

Regarding `COc1ccc(-c2nc(N)n(C)c2SSc2c(-c3ccc(OC)cc3)nc(N)n2C)cc1`, the GI50 was inactive: 15.7 µM.

Regarding `Cc1ccc(Nc2nc3ccccc3c(=O)n2N)cc1`, the GI50 is inactive: > 100 µM.

In the case of `COc1ccc(C(O)/C(=N\NC(N)=S)c2nc3ccc([N+](=O)[O-])cc3nc2O)cc1OC` (stereo unspecified), the GI50 is inactive: > 100 µM.

For `CC(=O)O[C@H]1CC[C@@]2(C)C(=CC[C@H]3[C@@H]4C[C@H](N5CCN(C)CC5)[C@H](OC(C)=O)[C@@]4(C)CC[C@@H]32)C1`, the GI50 is inactive: 14.8 µM.

Take `NC(=O)c1c[se]c(C2OC(COP(=O)(O)CP(=O)(O)OCC3OC(n4cnc5c(N)ncnc54)C(O)C3O)C(O)C2O)n1` (stereo unspecified): the GI50 is inactive: > 100 µM.

Consider `O=c1c2cc(I)ccc2nc(S)n1Cc1ccccc1`, for which the GI50 is inactive: 16.7 µM.

For `COc1cc(/C=C2\CCC(C)/C(=C\c3cc(OC)c(OC)c(OC)c3)C2=O)cc(OC)c1OC` (stereo unspecified), the GI50 is inactive: 10.8 µM.

In the case of `O=c1ccc2nc3cc(Br)ccc3sc-2c1`, the GI50 is inactive: > 100 µM.

In the case of `Cc1ccc(/N=N/C(C(=O)c2ccccc2)C(=O)c2ccccc2)cc1`, the GI50 is inactive: 22.1 µM.

Turning to `COC(=O)C1Cc2c([nH]c3ccccc23)C=N1` (stereo unspecified), the GI50 was inactive: 79.4 µM.

In the case of `O=C(N/S(=N/S(=O)(=O)c1ccc(Br)cc1)C(Cl)(Cl)Cl)c1ccccc1` (stereo unspecified), the GI50 was inactive: > 100 µM.

With `CSc1sc(C)cc1-c1nsc(=O)o1`, the GI50 is inactive: > 100 µM.

Take `O=C(O)c1ccccc1C(=O)c1ccco1`: the GI50 was inactive: > 100 µM.

For the compound `CCCCN(CCCC)CC(=O)c1ccc2cc(Cl)c3ccccc3c2c1`, the GI50 was inactive: 51.9 µM.

In the case of `Cc1cc(S(=O)(=O)NC2=NCc3nc4ccccc4n32)c(S)cc1Cl`, the GI50 is inactive: 35.8 µM.

Consider `O=C(Cn1c(=O)oc2ccccc21)N(c1ccccc1)c1ccccc1`, for which the GI50 is inactive: > 100 µM.

On to `Cc1ccc([N+](=O)[O-])cc1/N=N/C(=O)NNc1cc([N+](=O)[O-])ccc1C`, for which the GI50 was inactive: 80.4 µM.

Take `CC[C@@]1(O)C[C@H](OC2CC(N(C)C)C(O)C(C)O2)c2c(O)c3c(c(O)c2[C@H]1OC1CC(N(C)C)C(O)C(C)O1)C(=O)c1cccc(O)c1C3=O` (stereo partly specified): the GI50 was active: 0.0412 µM.

For `CC(C)(C)OC(=O)N1CCCC1C(=O)NC(c1ccccc1)c1ccccc1` (stereo unspecified), the GI50 was inactive: > 100 µM.

For the compound `COC(=O)/C(C#N)=C(\N)c1c(C)c2ccccc2oc1=N`, the GI50 is inactive: > 100 µM.

Consider `CC1=CC(=O)N2[C@H](OC[C@@H]2C(C)C)O1`, for which the GI50 was inactive: > 100 µM.

As to `C=CCN1C(=O)/C(=C/c2ccc(C)cc2)N=C1SC1OC(COC(C)=O)C(OC(C)=O)C(OC(C)=O)C1OC(C)=O` (stereo unspecified), the GI50 was inactive: 69.3 µM.

In the case of `O=C(O)c1nc(-c2ccccn2)c(-c2ccccn2)nc1C(=O)O`, the GI50 is inactive: 1.31 µM.

For `O=C(O)CSCc1cc2c(O)c(c1)Cc1cc(CSCC(=O)O)cc(c1O)Cc1cc(CSCC(=O)O)cc(c1O)Cc1cc(CSCC(=O)O)cc(c1O)C2`, the GI50 was inactive: > 100 µM.

Consider `CC1C(NNC(N)=O)Oc2cc3c(cc2C1c1ccccc1O)OCO3` (stereo unspecified), for which the GI50 was inactive: 39.4 µM.

Take `CCCCCCNC(=O)C(C)C1CCC2(C)C=CC(=O)C(C)=C2C1O` (stereo unspecified): the GI50 is inactive: > 100 µM.

For `O=C(c1ccccc1)c1ccc2cccc(OC3OC(CO)C(O)C(O)C3O)c2n1` (stereo unspecified), the GI50 was inactive: > 100 µM.

Consider `NS(=O)(=O)c1ccc(CNC(=S)NC(=O)Nc2ccc(Cl)c(Cl)c2)cc1`, for which the GI50 is inactive: 32.9 µM.

Regarding `CC(C)C[P+](c1ccccc1)(c1ccccc1)c1ccccc1`, the GI50 is inactive: 16.9 µM.

Take `CC(C(=O)n1nnc2ccccc21)N(c1ccccc1)c1ccccc1` (stereo unspecified): the GI50 is inactive: > 100 µM.

With `COc1ccc(CN(Cc2ccc(OC)cc2)C(=O)CC2(O)CCc3ccccc3C2)cc1` (stereo unspecified), the GI50 is inactive: > 100 µM.

As to `N#CC(c1nc2ccccc2nc1Cl)S(=O)(=O)c1ccccc1` (stereo unspecified), the GI50 was inactive: > 100 µM.

`N/C(=N\c1ccc(Cl)cc1)NS(=O)(=O)c1cc(Cl)c(Oc2ccc([N+](=O)[O-])cc2Cl)c(Cl)c1`: the GI50 was inactive: 16.6 µM.

In the case of `C[C@]12CC[C@H](O)CC1=CC[C@@H]1[C@@H]2CC[C@]2(C)NC(=O)/C(=C\c3ccccc3)C[C@@H]12`, the GI50 was inactive: 15.5 µM.

Take `C=CCNC(=O)N(CCC)CCCC(NC(C)=O)C(=O)NCc1ccccc1` (stereo unspecified): the GI50 was inactive: > 100 µM.

Take `CC(=O)c1ccccc1NCC(=O)Nn1cnc2ccc(S(=O)(=O)Nc3ccccc3C(C)=O)cc2c1=O`: the GI50 is inactive: > 100 µM.

For `CN(C)C(=O)OCOC(=O)N(C)C`, the GI50 is inactive: > 100 µM.

On to `CN(C)CC1CN=C(N)O1` (stereo unspecified), for which the GI50 was inactive: > 100 µM.

For the compound `CC(C)=CC1C(C(=O)Oc2ccccc2C(C)C)C1(C)C` (stereo unspecified), the GI50 is inactive: 31.6 µM.

On to `CC1=N/C(=C\c2ccc(N)cc2)C(=O)N1Nc1nnc(NN2C(=O)/C(=C/c3ccc(N)cc3)N=C2C)c2ccccc12`, for which the GI50 is inactive: 75.2 µM.

`COc1ccc(C2=Nn3c(nnc(Cc4ccc(Cl)cc4)c3=O)SC2)cc1`: the GI50 is inactive: > 100 µM.

Turning to `NNC(=O)/C(NC(=O)c1ccccc1)=C(\N)c1ccc(Cl)cc1`, the GI50 was inactive: > 100 µM.

Turning to `Cn1cnnc1Sc1c([N+](=O)[O-])nc(-c2ccc([N+](=O)[O-])cc2)n1C`, the GI50 was inactive: > 100 µM.

Regarding `CCN(CC)CC1CCCCN1CC(=O)N1c2cc(Cl)ccc2NC(=O)CC1C` (stereo unspecified), the GI50 was inactive: > 100 µM.

On to `COc1cc(/C=C/C(=O)Oc2ccc(NC(C)=O)cc2)ccc1C(=O)OCc1ccccc1`, for which the GI50 was inactive: > 97.7 µM.

Regarding `COC(=O)c1ccc(NCc2cc(OC)ccc2OC)cc1`, the GI50 was inactive: 80 µM.

Take `CCOC(=O)C(Cc1ccc(N=NN(C)C)cc1)NC(=O)CC1c2ccccc2-c2ccccc21` (stereo unspecified): the GI50 is inactive: > 100 µM.

On to `Nc1nc(N)c(N=O)c(OCC2CCCCC2)n1`, for which the GI50 was inactive: 26.9 µM.

For the compound `Cc1cc(O)c2c(c1)C[C@@H](O)C1=C2C(=O)c2c(O)ccc(OC3CC(O)C(OC4CC(OC5CCC(OC6CC(O)C(OC7CC(OC8CCC(O)C(C)O8)C(O)C(C)O7)C(C)O6)C(C)O5)C(O)C(C)O4)C(C)O3)c2C1=O` (stereo partly specified), the GI50 is active: 0.192 µM.

For the compound `O=C(O)c1ccc(NS(=O)(=O)Cc2ccccc2)cc1`, the GI50 is inactive: > 100 µM.

Turning to `Cc1cc(C)c2c(O)cc(-c3cccc4ccccc34)nc2n1`, the GI50 was inactive: 1.87 µM.
